Several values for one entry are separate records, joined by “and”; a condition that tells them apart may be missing. Equal entries are not always repeated. Hit rate of the full screen: of about 220,000 compounds, about 16,000 (7.3%) were called active. The shares of active, inactive and inconclusive entries below differ from those in the screen. The call rests on the fitted dose curve; in most records, active means well fitted inhibition curve with a large enough effect (not every such curve was filed as active); inconclusive means small, poorly fitted or top-dose-only effect, or another doubt; inactive means no such curve, though single readings can be large or run the other way. Potencies of inconclusive entries are doubtful fits and often do not repeat.
Target: Aldehyde dehydrogenase 1A1 (Homo sapiens) (UniProt P00352)
Experiment: qHTS Assay for Inhibitors of Aldehyde Dehydrogenase 1 (ALDH1A1);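 on activity, negative = inhibition: plate controls were no enzyme wells and a reference inhibitor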
Settings: Purified ALDH1A1, NADH fluorescence, propionaldehyde substrate; series mostly up to 75.3 µM
Potency means the concentration at half of the fitted maximal effect; tags describe the fitted curve by direction and shape.

Chain of UniProt P00352 (P00352 whole entry, looked up): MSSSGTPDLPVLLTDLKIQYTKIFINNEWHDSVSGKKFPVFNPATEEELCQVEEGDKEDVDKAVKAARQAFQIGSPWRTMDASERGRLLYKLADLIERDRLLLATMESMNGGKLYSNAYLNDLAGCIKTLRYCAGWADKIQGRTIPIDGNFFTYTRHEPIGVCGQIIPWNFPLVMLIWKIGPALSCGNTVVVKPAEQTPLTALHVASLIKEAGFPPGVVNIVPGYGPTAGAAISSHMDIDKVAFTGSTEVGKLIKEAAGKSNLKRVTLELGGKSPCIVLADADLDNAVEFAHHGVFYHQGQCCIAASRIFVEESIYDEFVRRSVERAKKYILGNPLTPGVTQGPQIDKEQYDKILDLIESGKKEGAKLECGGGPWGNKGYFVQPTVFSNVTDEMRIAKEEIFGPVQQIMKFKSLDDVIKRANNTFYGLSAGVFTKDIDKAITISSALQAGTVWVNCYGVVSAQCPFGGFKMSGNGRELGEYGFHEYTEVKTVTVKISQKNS

Compound	Potency	activity, negative = inhibition
CCC(C)(C)c1ccc(OCCCC[n+]2ccc(C)cc2)c(C(C)(C)CC)c1	inactive	–
Cc1cc(C)cc(OC2CCCCC2NS(=O)(=O)c2ccccc2)c1 (stereo not drawn)	active: 12.6 µM	–
CCN1C(=O)C(CC(=O)Nc2ccc(F)cc2)N(CCc2ccc(OC)cc2)C1=S (stereo not drawn)	active: 10 µM	–
CC1CCN(C(=O)CNC(=O)c2ccc(Cl)cc2Cl)CC1	inactive	–
CCC1=C2CC[C@H]3C(=O)N(C)C(=O)[C@H]3[C@H]2[C@@]2(C)C(=O)N(CC(=O)OC)C(=O)N2C1=O	inactive	–
N#CC1=C(SCc2ccccc2Cl)NC(=O)C(C(N)=O)C1 (stereo not drawn)	active: 15.8 µM	–
CCOC(=O)c1ccc(Nc2cc(C)nc3ncnn23)cc1	active: 10 µM	–
c1ccc(-n2nnnc2-c2cnc(-c3ccncc3)nc2-c2cccs2)cc1	inconclusive: 3.98 µM [inhibitor, partial curve]	–
CCOC(=O)c1c(NC(=O)CSc2ncnc3[nH]ncc23)sc2c1CCC(C)C2 (stereo not drawn)	inconclusive: 39.8 µM [inhibitor, single point]	–
CC(=O)c1cnc2cc(-c3ccccc3)nn2c1C	inconclusive: 35.5 µM [inhibitor, single point]	–
O=c1c2cc(Cl)ccc2nc(-c2ccc([N+](=O)[O-])cc2)n1O	active: 11.2 µM	–
Cn1c(/C(C#N)=C(\O)CN2CCN(Cc3ccccc3)CC2)nc2ccccc21	inconclusive: 31.6 µM [inhibitor, single point]	–
COC(=O)C1CCN(c2nc3ccccc3nc2C(C#N)C(=O)OCC(C)C)CC1 (stereo not drawn)	inconclusive: 8.91 µM [inhibitor, single point]	–
CCOc1ccc(S(=O)(=O)Nc2nc3ccccc3nc2Nc2ccc(N3CCOCC3)cc2)cc1	inactive	–
CCC(C)[C@H](NC(=O)NCc1cccnc1)C(=O)OC (stereo partly drawn)	inconclusive: 39.8 µM [inhibitor, single point]	–
CCOC(=O)c1cc2c(=O)n3ccccc3nc2n(Cc2ccco2)c1=NC(=O)c1ccc(OC)cc1	inconclusive: 3.16 µM [inhibitor, full curve]	–
Cc1ccc(N2CC(C(=O)OCc3ccc([N+](=O)[O-])cc3)CC2=O)cc1 (stereo not drawn)	active: 11.2 µM	–
C/C(CCN1CCCc2nc(C)c(C)cc21)=N\O[C@@H](C)c1cn([C@H](CO)Cc2ccccc2)nn1	inconclusive: 3.16 µM [inhibitor, partial curve] and inconclusive: 7.94 µM [inhibitor, single point]	–
CC(C)c1nc2sc3c(=O)[nH]cnc3c2c2c1CCC2	inconclusive: 35.5 µM [inhibitor, single point]	–
O=C(Nc1ccc(N2CCN(C(=O)c3ccccc3)CC2)cc1)c1cc2ccccc2o1	inconclusive: 37.7 µM [inhibitor, single point]	–
Cc1ccc(S(=O)(=O)O/N=C2\CCCc3ccccc32)cc1	inconclusive: 28.2 µM [inhibitor, single point]	–
CCCCC/S(CC1CC1(Cl)Cl)=N\S(=O)(=O)c1ccc(C)cc1 (stereo not drawn)	inconclusive: 14.1 µM [inhibitor, partial curve, poor fit]	–
Cc1cccc(-n2cnc3c(c2=O)c2nc4ccccc4nc2n3Cc2ccco2)c1	inconclusive: 25.1 µM [inhibitor, partial curve]	–
CCOC(=O)N1N=C(CC)CC1(O)C(F)(F)F (stereo not drawn)	inactive	–
COc1ccc(/C=C(\NC(=O)c2ccc(OC)cc2)C(=O)NC(CCSC)C(=O)O)cc1 (stereo not drawn)	inactive	–

Compound	Potency	activity, negative = inhibition
Cc1noc(C)c1-c1cc(N2CCNCC2)ncn1	inconclusive: 44.7 µM [inhibitor, single point]	–
C1=CC2CC1CC2CN1CCN(Cc2ccccc2)CC1 (stereo not drawn)	inconclusive: 22.4 µM [inhibitor, partial curve]	–
CCN(CC)C(NC(=O)Cc1ccccc1)C(Cl)(Cl)Cl (stereo not drawn)	inconclusive: 39.8 µM [inhibitor, single point]	–
O=C(NNC(=S)NC1CC2CCC1C2)c1ccc(Cl)cc1 (stereo not drawn)	inconclusive: 44.7 µM [inhibitor, single point]	–
Cc1ccc(NC(=O)CN2CC(C)SC2=NC2CCCCC2)cc1 (stereo not drawn)	inactive	–
Cc1ccc(-c2nc(N)n(C(=O)c3ccco3)n2)cc1	inconclusive: 25.1 µM [inhibitor, partial curve]	–
CC(NC(=O)C12CC3(C)CC(C)(CC(C)(C3)C1)C2)C(=O)O (stereo not drawn)	inactive	–
CCOC(=O)N1CCN(CC(=O)Nc2cc(OC)c(OC)cc2C#N)CC1	inactive	–
Cc1nc2sc(C(c3ccco3)N3CCN(C(c4ccccc4)c4ccccc4)CC3)c(O)n2n1 (stereo not drawn)	inconclusive: 11.2 µM [inhibitor, partial curve]	–
CCCCCCCCN	inconclusive: 39.8 µM [inhibitor, single point]	–
CCOc1ccc(C(CC(=O)O)NS(=O)(=O)c2ccc(C)cc2)cc1OC (stereo not drawn)	inactive	–
Nc1nc2ccccc2n1/N=C/c1ccc([N+](=O)[O-])s1	inactive	–
NC(=O)c1ccc[n+]([C@@H]2OC(COP(=O)([O-])OP(=O)(O)OCC3OC(n4cnc5c(N)ncnc54)C(OP(=O)(O)O)C3O)C(O)C2O)c1 (stereo partly drawn)	inconclusive: 39.8 µM [inhibitor, single point]	–
CC(/C=N/NC(=O)CSc1nc2ccccc2n1C)=C\c1ccco1	active: 12.6 µM	–
COc1ccc(NS(=O)(=O)c2cc(-c3nnnn3C)ccc2OC)cc1	active: 0.794 µM	–
CC1=Nn2c(nnc2-c2n[nH]c3c2CCC3)SC1	inactive	–
S=C(NCCC(c1ccccc1)c1ccccc1)Nc1cccc(Cl)c1	inconclusive: 14.1 µM [inhibitor, partial curve]	–
Cc1nc2ccc(S(=O)(=O)NCC(=O)N3CCC(C)CC3)cc2s1	inactive	–
Cc1nnnn1CC(=O)Nc1cccc([N+](=O)[O-])c1	inactive	–
COC(=O)Cc1c(O)ccn(Cc2ccc(F)cc2)c1=O	inactive	–
Cn1c(-c2ccccc2)c[n+]2c1-c1ccccc1C2	inconclusive: 39.8 µM [inhibitor, single point]	–
O=[N+]([O-])c1ccc(S(=O)(=O)N/N=C/c2ccco2)cc1	inconclusive: 39.8 µM [inhibitor, single point]	–
Cc1noc(C)c1-c1nc(Nc2ccccc2)c2ccccc2n1	inconclusive: 35.5 µM [inhibitor, single point]	–
Cc1nc(N)sc1Cc1ccc2c(c1)OCO2	inconclusive: 44.7 µM [inhibitor, single point]	–
CCCn1c(O)c(CN2CCCC(C)C2)c(C)c(C#N)c1=O (stereo not drawn)	inconclusive: 31.6 µM [inhibitor, single point]	–

Compound	Potency	activity, negative = inhibition
Cc1onc(-c2c(Cl)cccc2Cl)c1C(=O)NCCN1CCOCC1	inconclusive: 25.1 µM [inhibitor, single point]	–
N#CC1(Nc2ccccc2)C(=O)Nc2ccccc21 (stereo not drawn)	inconclusive: 39.8 µM [inhibitor, single point]	–
CCCCc1ccc(NC(=S)NCc2cccnc2)cc1	inconclusive: 39.8 µM [inhibitor, single point]	–
COc1cccc(/C=C/C2=CC3(C)CC2(C)C(c2cccc(OC)c2)CC3=O)c1 (stereo not drawn)	–	inactive: 1.5% [at 13.5 µM]
COc1cccc(C2c3c(oc4ccccc4c3=O)C(=O)N2CCCN(C)C)c1OC (stereo not drawn)	inconclusive: 31.6 µM [inhibitor, partial curve]	–
C=CCNc1ccc(N2C(=O)C3CCC(C)CC3C2=O)cc1[N+](=O)[O-] (stereo not drawn)	inconclusive: 39.8 µM [inhibitor, single point]	–
CCN1C(=O)/C(=C\N2CCN(C)CC2)SC1=S	inconclusive: 44.7 µM [inhibitor, single point]	–
COc1cccc(-c2nc(N(C)Cc3ccco3)c3ccccc3n2)c1	inactive	–
CCOC1=C/C(=C/c2c(N)n3nc(-c4ccccc4)sc3nc2=O)C=CC1=O	inconclusive: 25.1 µM [inhibitor, partial curve]	–
Cc1cc2ccccc2n1CCNC(=O)Cc1cccc2ccccc12	inconclusive: 39.8 µM [inhibitor, single point]	–
COc1ccc2cc1Oc1ccc(cc1)C[C@H]1c3cc(c(OC)cc3CCN1C)Oc1c(OC)c(OC)cc3c1[C@@H](C2)N(C)CC3	inactive	–
CCNc1ncc2nc(-c3cc(F)cc(F)c3)c(=O)n(C[C@H]3CCCO3)c2n1	inconclusive: 12.6 µM [inhibitor, partial curve]	–
CC(=O)Nc1ccc2nc(-c3ccco3)[nH]c2c1	inconclusive: 31.6 µM [inhibitor, partial curve]	–
Cc1cc(-c2n[nH]c(=S)n2/N=C/C(Cl)=C/c2ccccc2)n[nH]1	inconclusive: 39.8 µM [inhibitor, single point]	–
CCCC1OC2CC3C4CCC5=CC(=O)C=CC5(C)C4C(O)CC3(C)[C@]2(C(=O)CO)O1 (stereo partly drawn)	inactive	–
Cc1ccc([N+](=O)[O-])cc1NC(=O)CCSc1ccc(Cl)cc1	inconclusive: 18.9 µM [inhibitor, partial curve]	–
COc1ccccc1CNc1ccnc(-c2ccccc2OC)n1	inactive	–
O=C(O)CSc1nnc2c3ccccc3c3ccccc3c2n1	inconclusive: 3.55 µM [inhibitor, single point]	–
CCCC(=O)N/N=C1\CS(=O)(=O)N(C)c2ccsc21	inactive	–
Cc1ccc(S(=O)(=O)N(C)Cc2ccc(C(=O)N/N=C3\CCCC(=O)C3)cc2)cc1	inconclusive: 44.7 µM [inhibitor, single point]	–
C=CCN(C)NC(=S)Nc1ccccc1	inactive	–
C=CCNC(=O)COc1ccc(Br)cc1Cl	inactive	–
C=CCn1c(-c2cc3cccc(OC)c3o2)n[nH]c1=S	inconclusive: 14.1 µM [inhibitor, partial curve]	–

From PubChem BioAssay AID1030 (National Center for Advancing Translational Sciences (NCATS), 2008)
